Test results taken from PubChem BioAssay AID445 (National Center for Advancing Translational Sciences (NCATS), 2006).
About 40 (0.04%) of roughly 110,000 compounds were called active. The shares of active, inactive and inconclusive entries below differ from those in the screen. Calls follow the shape of the dose curve; as a rule, active = well fitted curve in the direction sought with a large enough effect in the signal ratio (not every such curve was filed as active); inconclusive = small, poorly fitted or top-dose-only effect, or a change in a side signal; inactive = flat fitted curve, though single readings scatter; the % refers to the signal ratio. A potency beside an inconclusive call is a rough fit, not a confirmed value.

experiment: IkB Signaling; details: ABC-DLBCL IkBa-CBG/CBR dual luciferase ratio (green luciferase fused to IkBa over red control in OCI-Ly3 lymphoma cells), 4 h; IkBa stabilization activation: at 57.1 µM (top of the series), scaled: untreated 0%, proteasome inhibitor 100% unless noted;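 as to IkBa stabilization activation: 0% = basal untreated cells and 100% = reference inhibitor full response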
How it was run: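 Luminescence ratio of IκBα-fused green versus native red beetle luciferase in OCI-Ly3 cells, 4 h post-doxycycline with compound; red signal alone, scaled from basal (0%) to zero light (-100%), flagged nonspecific or cytotoxic effects.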
Potency is read from the fitted curve at half-maximal effect.

Row | SMILES | IkBa stabilization activation | Potency
1 | COc1ccc(NC(=O)COc2ccccc2C#N)c(S(=O)(=O)N2CCCCC2)c1 | inconclusive: 2.63% [signal inhibitor] | 
2 | CCOc1ccc(NC(=O)c2c(NC(=O)c3ccncc3)sc3c2CCC(C(C)(C)C)C3)cc1 (centres undefined) | inconclusive: 1.02% [signal inhibitor] | 
3 | CC(=O)N1CCCc2cc(S(=O)(=O)N3CCCC(C(=O)N4CCN(c5ccccc5F)CC4)C3)ccc21 (centres undefined) | inconclusive: 6.19% [signal inhibitor] | 
4 | Cc1cccc(-n2cnc3c(c2=O)c2nc4ccccc4nc2n3Cc2ccco2)c1 | inactive: 3.13% | 
5 | Cc1ccc2c(c1)-c1c(cnn1CC(=O)N1CCN(c3cccc(C(F)(F)F)c3)CC1)CO2 |  | inconclusive: 25.1 µM [signal inhibitor, single point]
6 | COc1ccc(NC(=O)c2ccc(=O)oc2)cc1 | inconclusive: 8.26% [signal inhibitor] | 
7 | O=C(Nc1ccc(N2CCN(C(=O)c3ccccc3)CC2)cc1)c1cc2ccccc2o1 | inactive: -0.766% | 
8 | CCc1cccc(C)c1NS(=O)(=O)c1ccc2c(c1)NC(=O)C(C)C(=O)N2 (centres undefined) | inactive: 3.97% | 
9 | Cc1nc(SCC(=O)OC(C)(C)C)c2c3c(sc2n1)CCCC3 | inconclusive: 0.869% [signal inhibitor] | 
10 | COC(=O)c1sccc1S(=O)(=O)N(CC(=O)Nc1cc(C)cc(C)c1)c1ccc(Cl)cc1 |  | inconclusive: 15.8 µM [signal inhibitor]
11 | O=C(c1ccc(C#Cc2ccccc2)o1)N1CCN(c2ccccn2)CC1 | inconclusive: -0.334% [signal inhibitor] | 
12 | COc1ccc(NC(=O)c2nn(C)c3c2CSc2ccc(C)cc2-3)cc1OC | inconclusive: 1.4% [signal inhibitor] | 
13 | COc1ccc(CNC(=O)c2ccc(CNS(=O)(=O)c3ccc(OC)cc3)cc2)cc1 | inconclusive: 10.4% [signal inhibitor] | 
14 | COc1cccc(NC(=O)c2ccc3c(=O)n4nc(Nc5ccccc5OC)sc4nc3c2)c1 |  | inconclusive: 31.6 µM [signal inhibitor, single point]
15 | CCOc1ccc2nc(SCC#N)c(C#N)cc2c1 | inactive: -2.6% | 
16 | Cc1ccc(-c2csc3nnc(SCC(=O)NCc4ccc5c(c4)OCO5)n23)cc1 | inconclusive: 3.55% [signal inhibitor] | 
17 | CCOC(=O)c1ccc(NC(=O)CC2Nc3cc(C)c(C)cc3NC2=O)cc1 (centres undefined) | inconclusive: -0.0904% [signal inhibitor] | 
18 | COc1ccc(-c2cn3nc(SCC(=O)Nc4ccccc4F)ccc3n2)cc1 | inconclusive: 2.42% [signal inhibitor] | 
19 | Cc1cc(NC(=O)c2ccccc2NS(=O)(=O)c2c(C)c(C)cc(C)c2C)no1 | inactive: 1.85% | 
20 | O=c1ccnc(S/C=C/c2ccccc2)[nH]1 |  | inconclusive: 25.1 µM [signal inhibitor, partial curve]
21 | CSc1nc(C)c2c(n1)OC(CN1C(=O)c3ccccc3C1=O)C2 (centres undefined) | inactive: 1.73% | 
22 | COc1ccc(S(=O)(=O)N(CC(=O)NCCSc2ccccc2)c2ccc(Cl)cc2)cc1 | inconclusive: 7.13% [signal inhibitor] | 

Row | SMILES | IkBa stabilization activation | Potency
23 | Cc1cccc(OCC(=O)Nc2cccc(C(=O)OCc3cc(=O)n4c(C)csc4n3)c2)c1 |  | inconclusive: 20 µM [signal inhibitor, partial curve]
24 | Cc1ccc2nc(NC(=O)c3ccc(Cn4cc(Cl)cn4)o3)sc2c1 | inconclusive: 5.12% [signal inhibitor] | 
25 | CCc1cccc(N2C(=O)CSC23C(=O)N(Cc2ccccc2F)c2ccccc23)c1 (centres undefined) | inconclusive: 1.23% [signal inhibitor] | 
26 | Cc1nc2c(-c3ccccc3)c(C)[nH]n2c(=O)c1Cl | inconclusive: 11.2% [signal inhibitor] | 
27 | CCN(CC)c1ccc2cc(-c3nc(-c4ccccc4)no3)c(=O)oc2c1 |  | inconclusive: 25.1 µM [signal inhibitor, partial curve]
28 | Cn1c(/C(C#N)=C(\O)CN2CCN(Cc3ccccc3)CC2)nc2ccccc21 | inactive: 1.66% | 
29 | O=C(NCc1cccc(Cl)c1)C1CCN(c2nn3cc(-c4ccc(F)cc4)nc3s2)CC1 | inconclusive: 0.754% [signal inhibitor] | 
30 | CCCCNc1ncnc2c1cnn2-c1ccc(Cl)cc1 | inactive: 4.16% | 
31 | CCCCNC(=O)c1cnn2c(C)c(Cc3c(C)cc(C)cc3C)c(C)nc12 | inconclusive: -3.15% [signal inhibitor] | 
32 | CCOC(=O)c1cc2c(=O)n3ccccc3nc2n(Cc2ccco2)c1=NC(=O)c1ccc(OC)cc1 | inconclusive: 2% [signal inhibitor] | 
33 | CSc1ccc(CNC(=O)c2ccc3c(c2)N(C)C(=O)C2CCCCN32)cc1 (centres undefined) | inconclusive: 10.4% [signal inhibitor] | 
34 | COc1ccc(OCCSc2nnc3sc4ccccc4n23)cc1 | inconclusive: 5% [signal inhibitor] | 
35 | O=c1ccc2cc(S(=O)(=O)NCc3ccc(Cl)cc3)ccc2[nH]1 | inconclusive: -1.41% [signal inhibitor] | 
36 | C=C1C(CCl)(CCl)C2(Cl)C(Cl)C(Cl)C1(Cl)C2(Cl)Cl (centres undefined) | inactive: 6.97% | 
37 | CCOC(=O)CNC(=O)c1sc(NC(=O)c2ccccc2F)nc1C | inconclusive: -5.37% [signal inhibitor] | 
38 | COc1cccc(-c2csc(N3CCN(CC(=O)Nc4ccc5c(c4)OCO5)CC3)n2)c1 | inconclusive: 3.79% [signal inhibitor] | 
39 | CCOc1ccc(NC(=O)c2ccc3nc(C(C)C)oc3c2)cc1 | inconclusive: 3.36% [signal inhibitor] | 
40 | COc1ccc(Cn2c(C(=O)O)c(CNCc3ccc(C)o3)c3ccc(OC)cc32)cc1 | inconclusive: 0.0754% [signal inhibitor] | 
41 | Cc1ccc(C)c(CN2C(=O)CSc3ccc(C(=O)NCc4ccccc4)cc32)c1 | inactive: -0.106% | 
42 | CCn1c(SCc2nc(-c3cccs3)no2)nnc1-c1c[nH]c2ccccc12 | inconclusive: -6.87% [signal inhibitor] | 
43 | O=C(Cn1ncc2c(=O)oc3ccccc3c21)NCCN1CCN(c2ccccc2F)CC1 | inactive: 1.22% | 
44 | COc1ccccc1OC(C)C(=O)N1CCC(c2nc3ccccc3s2)CC1 (centres undefined) | inconclusive: 4.34% [signal inhibitor] | 
